{"source": "paper PMC4336329", "about": "(PLoS ONE, 2015)", "note": "Among all 310,000 compounds or so, about 14,000 (4.5%) showed an effect of 50% or more. The effect is printed as a negative number. This is one part of the list.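 Further: peak tail current of the secondary pulse compared with the same well before compound.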", "data": [{"target": "human ether-à-go-go-related gene (hERG) potassium channel (human, UniProt Q12809)", "sequence (Q12809 whole entry, looked up)": "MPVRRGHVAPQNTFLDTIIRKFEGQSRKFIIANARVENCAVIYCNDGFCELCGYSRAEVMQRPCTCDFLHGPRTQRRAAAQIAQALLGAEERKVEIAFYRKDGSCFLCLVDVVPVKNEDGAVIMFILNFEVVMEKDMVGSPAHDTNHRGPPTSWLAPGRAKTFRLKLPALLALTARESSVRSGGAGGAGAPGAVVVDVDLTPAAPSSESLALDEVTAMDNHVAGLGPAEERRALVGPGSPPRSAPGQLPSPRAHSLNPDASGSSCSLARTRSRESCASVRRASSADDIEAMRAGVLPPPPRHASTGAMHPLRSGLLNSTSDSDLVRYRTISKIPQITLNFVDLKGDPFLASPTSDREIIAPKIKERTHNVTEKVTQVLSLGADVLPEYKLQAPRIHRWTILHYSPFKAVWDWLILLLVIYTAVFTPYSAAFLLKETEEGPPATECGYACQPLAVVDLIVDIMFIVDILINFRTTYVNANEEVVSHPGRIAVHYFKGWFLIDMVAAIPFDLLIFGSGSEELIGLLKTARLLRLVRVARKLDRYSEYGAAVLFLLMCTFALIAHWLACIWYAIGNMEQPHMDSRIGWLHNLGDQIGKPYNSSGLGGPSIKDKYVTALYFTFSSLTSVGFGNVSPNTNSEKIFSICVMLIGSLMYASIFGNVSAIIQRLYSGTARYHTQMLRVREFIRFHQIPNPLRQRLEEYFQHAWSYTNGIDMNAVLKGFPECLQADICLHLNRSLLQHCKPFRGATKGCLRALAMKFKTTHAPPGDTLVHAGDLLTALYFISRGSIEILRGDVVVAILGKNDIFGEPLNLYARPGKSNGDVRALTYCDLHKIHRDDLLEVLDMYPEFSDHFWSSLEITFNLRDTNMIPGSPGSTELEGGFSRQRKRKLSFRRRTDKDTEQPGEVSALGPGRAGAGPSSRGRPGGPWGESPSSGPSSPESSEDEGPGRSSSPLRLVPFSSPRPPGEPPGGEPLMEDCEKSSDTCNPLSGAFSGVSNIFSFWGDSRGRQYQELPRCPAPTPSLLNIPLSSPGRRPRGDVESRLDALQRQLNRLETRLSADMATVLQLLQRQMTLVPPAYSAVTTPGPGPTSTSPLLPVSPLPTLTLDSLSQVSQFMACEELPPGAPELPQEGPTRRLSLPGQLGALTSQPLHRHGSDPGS", "assay": "primary screen, population patch clamp on CHO cells stably expressing hERG", "units": {"hERG current change (%, negative = inhibition) at 10uM": "%"}, "values": [{"smiles": "CC1CCN(c2ccc3nnc(CCC(=O)N4CCN(c5ccccc5F)CC4)n3n2)CC1", "hERG current change (%, negative = inhibition) at 10uM": -62.6}, {"smiles": "CCc1n[nH]c(=S)n1/N=C/c1ccc(N(CC)CC)cc1", "hERG current change (%, negative = inhibition) at 10uM": -0.999}, {"smiles": "CC(C)(C#CCCCCC#CC(C)(C)[N+](C)(C)C)[N+](C)(C)C.[I-]", "hERG current change (%, negative = inhibition) at 10uM": 9.62}, {"smiles": "CCCCNC(=O)O[C@@H]1C[C@H]2CCCC(=O)N3CC[C@@H](C1)[C@@H]23", "hERG current change (%, negative = inhibition) at 10uM": 8.77}, {"smiles": "COc1ccc([C@@H]2CC(=O)c3c(O)cc(O[C@@H]4O[C@H](CO[C@@H]5O[C@@H](C)[C@H](O)[C@@H](O)[C@H]5O)[C@@H](O)[C@H](O)[C@H]4O)cc3O2)cc1O", "hERG current change (%, negative = inhibition) at 10uM": 7.74}, {"smiles": "COc1ccc(CCN(C)C2CCCN(C(=O)CCSC)C2)cc1OC", "note": "(centres unmarked)", "hERG current change (%, negative = inhibition) at 10uM": -57.2}, {"smiles": "COc1ccc(OC)c(NC(=O)c2sc3nc(C)cc(C)c3c2N)c1", "hERG current change (%, negative = inhibition) at 10uM": 23.2}, {"smiles": "CC(=O)c1cccc(NS(=O)(=O)c2ccc(C(=O)Nc3ccccc3)cc2)c1", "hERG current change (%, negative = inhibition) at 10uM": 5.75}, {"smiles": "COCCOc1cc2ncnc(N3CCC(C(=O)O)CC3)c2cc1OCCOC", "hERG current change (%, negative = inhibition) at 10uM": 4.85}, {"smiles": "Cc1cc(/C=N/NC(=O)c2ccccn2)c(C)n1-c1cccc([N+](=O)[O-])c1", "hERG current change (%, negative = inhibition) at 10uM": 8.4}, {"smiles": "Cc1ccccc1CSCC(=O)NC1CCCC1", "hERG current change (%, negative = inhibition) at 10uM": 8.23}, {"smiles": "C=CCOc1nc2sc(C)c(C)c2c(=O)n1-c1ccccc1", "hERG current change (%, negative = inhibition) at 10uM": 0.693}, {"smiles": "c1ccc(-c2nnc(-c3ccccn3)c(-c3ccccn3)n2)nc1", "hERG current change (%, negative = inhibition) at 10uM": 6.15}, {"smiles": "Cc1cc(C)cc(NCCC#N)c1", "hERG current change (%, negative = inhibition) at 10uM": 3.22}, {"smiles": "CCOC(=O)c1sc(N(Cc2ccccc2)C(=O)COC(=O)c2cnccn2)nc1C", "hERG current change (%, negative = inhibition) at 10uM": 0.26}, {"smiles": "NC(=O)CSc1nc(C2CC2)nc2sc3c(c12)CCCC3", "hERG current change (%, negative = inhibition) at 10uM": 55.9}, {"smiles": "O=[N+]([O-])c1cccc(CNC2CCCCCC2)c1", "hERG current change (%, negative = inhibition) at 10uM": -3.47}, {"smiles": "COc1cc(Nc2ccccn2)cc(C(=O)Nc2cccc(C(F)(F)F)c2)c1", "hERG current change (%, negative = inhibition) at 10uM": -2.6}, {"smiles": "CCNC(=S)N1CCN(c2ccccn2)CC1", "hERG current change (%, negative = inhibition) at 10uM": 11.6}, {"smiles": "COc1cccc(/C=C/C(=O)OCC(=O)c2cc(C)n(CC3CCCO3)c2C)c1OC", "note": "(centres unmarked)", "hERG current change (%, negative = inhibition) at 10uM": 6.95}, {"smiles": "COC(C(=O)N/N=C(\\C)c1ccc(C)cc1)c1ccccc1", "note": "(centres unmarked)", "hERG current change (%, negative = inhibition) at 10uM": 5.03}, {"smiles": "Cn1c2ccccc2c2n[nH]c(=S)nc21", "hERG current change (%, negative = inhibition) at 10uM": 11.5}, {"smiles": "Cc1ccccc1CN1CCC(C(=O)Nc2ccc(Oc3cccnc3)cc2)CC1", "hERG current change (%, negative = inhibition) at 10uM": -48.6}, {"smiles": "O=C(Nc1ccccn1)[C@@H]1CCC(=O)N1C(=O)OCc1ccccc1", "hERG current change (%, negative = inhibition) at 10uM": 4.77}, {"smiles": "CC(N)C12CC3CC(CC(C3)C1)C2.Cl", "note": "(centres unmarked)", "hERG current change (%, negative = inhibition) at 10uM": 14.1}, {"smiles": "O=C(Nc1ccc2c(c1)OCO2)c1cc(-c2ccncc2)nc2ccccc12", "hERG current change (%, negative = inhibition) at 10uM": -3.22}, {"smiles": "O=C(/C=C/c1ccccc1)OCC(=O)c1ccc[nH]1", "hERG current change (%, negative = inhibition) at 10uM": 9.74}, {"smiles": "O=C(NNC1CC(=O)N(c2cccc(Cl)c2)C1=O)c1cccs1", "note": "(centres unmarked)", "hERG current change (%, negative = inhibition) at 10uM": 3.18}, {"smiles": "CCOC(=O)c1ccc(NC(=S)N2CCSC2c2c(F)cc(F)cc2F)cc1", "note": "(centres unmarked)", "hERG current change (%, negative = inhibition) at 10uM": 2.26}, {"smiles": "CCOC(=O)C1(Cc2cccc(OC)c2)CCN(Cc2cnc(SC)nc2)CC1", "hERG current change (%, negative = inhibition) at 10uM": -27}, {"smiles": "O=C(CCn1nc(-c2ccccc2)c2ccccc2c1=O)Nc1cccnc1", "hERG current change (%, negative = inhibition) at 10uM": 17.2}, {"smiles": "CN1CCC(OC(=O)COc2ccc(C(C)(C)C)cc2)CC1.Cl", "hERG current change (%, negative = inhibition) at 10uM": -28.7}, {"smiles": "Cc1ccc(F)cc1NC(=O)N1CCCN(C(=O)OC(C)(C)C)CC1", "hERG current change (%, negative = inhibition) at 10uM": 13.4}, {"smiles": "Cc1ccc(S(=O)(=O)NC2CCC(C(=O)O)CC2)cc1", "note": "(centres unmarked)", "hERG current change (%, negative = inhibition) at 10uM": -1.64}, {"smiles": "CCn1cc(S(=O)(=O)c2ccc(OC)cc2)c(=O)c2cc(OC)ccc21", "hERG current change (%, negative = inhibition) at 10uM": 8.19}, {"smiles": "Cc1ccc(C(=O)N2CCCCC2)cc1S(=O)(=O)N1CCCC1", "hERG current change (%, negative = inhibition) at 10uM": 5.55}, {"smiles": "O=C(NC(c1ccc(Cl)cc1)P(=O)(Oc1ccccc1)Oc1ccccc1)OCc1ccccc1", "note": "(centres unmarked)", "hERG current change (%, negative = inhibition) at 10uM": 9.86}, {"smiles": "Cc1[nH]n(-c2cccc(Cl)c2)c(=O)c1C=NC12CN3CN(CN(C3)C1)C2", "hERG current change (%, negative = inhibition) at 10uM": -19}, {"smiles": "O=C(CCC1CCCN(C(=O)c2ccc(F)c(F)c2)C1)N1CCN(c2ccccn2)CC1", "note": "(centres unmarked)", "hERG current change (%, negative = inhibition) at 10uM": -6.26}, {"smiles": "Cn1c(CNC(=O)C(C)(C)C)nc2ccccc21", "hERG current change (%, negative = inhibition) at 10uM": -4.96}, {"smiles": "Cc1cc(N/N=C\\c2ccccc2)nc(-c2ccccc2O)n1", "hERG current change (%, negative = inhibition) at 10uM": 4.95}, {"smiles": "CCN(CC)c1ccc2c(C)c(CN3CCOCC3)c(=O)oc2c1", "hERG current change (%, negative = inhibition) at 10uM": -11.1}, {"smiles": "Cn1nc(C(=O)N2CCN(C(c3ccccc3)c3ccccc3)CC2)c2ccccc2c1=O", "hERG current change (%, negative = inhibition) at 10uM": -35.2}, {"smiles": "COc1ccc(S(=O)(=O)CC(=O)c2cc3cc(Br)ccc3oc2=O)cc1", "hERG current change (%, negative = inhibition) at 10uM": 0.2}]}]}
